The whole screen tested about 310,000 compounds, of which about 2,200 (0.71%) showed an effect of 50% or more. The effect is printed as a negative number. The list shows a part of the results.

The target of the assay is human ether-à-go-go-related gene (hERG) potassium channel (human, UniProt Q12809). The experiment in a line: primary screen, population patch clamp on CHO cells stably expressing hERG.
Chain of human ether-à-go-go-related gene (hERG) potassium channel (Q12809 whole entry, looked up): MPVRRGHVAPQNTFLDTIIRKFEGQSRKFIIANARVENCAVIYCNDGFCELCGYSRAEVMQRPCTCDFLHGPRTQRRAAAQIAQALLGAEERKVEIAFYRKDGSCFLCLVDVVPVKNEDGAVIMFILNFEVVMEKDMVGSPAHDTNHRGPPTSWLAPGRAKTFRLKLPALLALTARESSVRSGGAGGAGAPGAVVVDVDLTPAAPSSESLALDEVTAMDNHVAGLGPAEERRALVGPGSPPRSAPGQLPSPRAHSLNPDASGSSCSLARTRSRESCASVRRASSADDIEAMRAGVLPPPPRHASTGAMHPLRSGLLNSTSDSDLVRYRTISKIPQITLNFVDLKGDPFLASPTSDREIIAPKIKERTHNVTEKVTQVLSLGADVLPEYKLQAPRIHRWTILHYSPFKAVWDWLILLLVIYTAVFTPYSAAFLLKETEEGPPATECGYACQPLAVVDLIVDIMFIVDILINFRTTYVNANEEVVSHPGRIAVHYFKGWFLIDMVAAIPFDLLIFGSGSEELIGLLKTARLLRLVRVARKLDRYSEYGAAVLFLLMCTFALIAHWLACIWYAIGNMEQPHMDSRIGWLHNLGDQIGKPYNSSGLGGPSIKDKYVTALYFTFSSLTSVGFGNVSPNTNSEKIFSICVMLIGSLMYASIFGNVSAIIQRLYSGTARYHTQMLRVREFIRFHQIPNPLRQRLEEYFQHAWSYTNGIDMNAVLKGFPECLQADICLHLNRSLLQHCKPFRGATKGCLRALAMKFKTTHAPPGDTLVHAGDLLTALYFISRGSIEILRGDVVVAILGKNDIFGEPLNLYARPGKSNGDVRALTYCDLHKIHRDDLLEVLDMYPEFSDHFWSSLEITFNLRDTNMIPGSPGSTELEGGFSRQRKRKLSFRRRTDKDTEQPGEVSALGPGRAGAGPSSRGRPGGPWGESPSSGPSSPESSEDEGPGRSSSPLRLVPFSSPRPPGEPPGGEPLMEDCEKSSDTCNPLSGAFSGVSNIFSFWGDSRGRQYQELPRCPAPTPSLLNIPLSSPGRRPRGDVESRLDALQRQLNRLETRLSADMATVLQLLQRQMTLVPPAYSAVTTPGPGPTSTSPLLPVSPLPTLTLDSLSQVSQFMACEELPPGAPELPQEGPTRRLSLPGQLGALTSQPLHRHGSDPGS
In the case of `COc1ccc(NC(c2ccccc2)P(=O)(Oc2ccccc2)Oc2ccccc2)cc1` (centres unmarked), the “hERG current change (%, negative = inhibition) at 1uM” value stood at 5.63%.

Take `CCC1CCC2(CC1)NNC(=S)NN2`: the “hERG current change (%, negative = inhibition) at 1uM” value stood at 1.69%.

As to `CCOc1nc(-c2ccccc2)ccc1-c1noc(COc2ccccc2)n1`, the “hERG current change (%, negative = inhibition) at 1uM” value is -11.8%.

Take `CC1C(c2ccccc2)N(C)CCC12NC(=O)NC2=O` (centres unmarked): the “hERG current change (%, negative = inhibition) at 1uM” value came out at 2.73%.

Turning to `C=CCn1c(-c2ccccc2)c[nH]c1=S`, the “hERG current change (%, negative = inhibition) at 1uM” value worked out at 9.5%.

On to `Cc1cccc(C(=O)OCC(=O)Nc2ccc(F)cc2)c1`, for which the “hERG current change (%, negative = inhibition) at 1uM” value amounted to 15.1%.

As for `COc1nc(Nc2ccccc2)nc(OC)n1`, the “hERG current change (%, negative = inhibition) at 1uM” value is recorded as 13.6%.

With `Clc1ccc(-n2cccc2CN2CCc3c([nH]c4ccccc34)C2c2ccccn2)nc1` (centres unmarked), the “hERG current change (%, negative = inhibition) at 1uM” value was -2.31%.

Regarding `Cc1ccc(S(=O)(=O)N(C#N)c2nc(C)cc(C)n2)cc1`, the “hERG current change (%, negative = inhibition) at 1uM” value is reported as 2.28%.

For `Cn1c(=O)c2c(ncn2CCC(=O)N/N=C/c2ccccc2)n(C)c1=O`, the “hERG current change (%, negative = inhibition) at 1uM” value was found to be 8.18%.

For the compound `C=CCNC(=O)N1CCc2[nH]c3ccc(F)cc3c2C1`, the “hERG current change (%, negative = inhibition) at 1uM” value was 13.4%.

On to `O=C(OCc1ccc([N+](=O)[O-])cc1)c1cc([N+](=O)[O-])ccc1N1CCOCC1`, for which the “hERG current change (%, negative = inhibition) at 1uM” value was -67.2%.

In the case of `CC(C)(C)C(=O)O/N=C(\N)c1c(Cl)cccc1Cl`, the “hERG current change (%, negative = inhibition) at 1uM” value is listed as 7.42%.

Consider `O=C(CSc1nnc(Cc2cc(=O)[nH]c(=O)[nH]2)n1-c1ccccc1)N1CCCCC1`, for which the “hERG current change (%, negative = inhibition) at 1uM” value is 15.3%.

Regarding `O=S(=O)(c1ccc(F)cc1)N1CCN(C(=S)NC2CC2)CC1`, the “hERG current change (%, negative = inhibition) at 1uM” value was found to be 6.29%.

For `Fc1ccccc1-c1nc2ccccc2[nH]1`, the “hERG current change (%, negative = inhibition) at 1uM” value was determined as 19.9%.

Turning to `C[C@@H]1C(=O)O[C@H]2CC34[C@H]5C[C@@H](C(C)(C)C)[C@]36[C@@H](OC(=O)[C@@H]6O)O[C@@]4(C(=O)O5)[C@]21O` (some centres unmarked), the “hERG current change (%, negative = inhibition) at 1uM” value amounted to 9.2%.

In the case of `CCOC(=O)CC1CCCCN1C(=O)c1cc(COc2cccc3cnccc23)on1` (centres unmarked), the “hERG current change (%, negative = inhibition) at 1uM” value was 10.1%.

With `COc1ccc2sc(N3C(=O)C4CC=C(C)CC4C3=O)nc2c1` (centres unmarked), the “hERG current change (%, negative = inhibition) at 1uM” value is -0.875%.

On to `Cc1ccc(OCC(=O)NNC(=O)C2CCN(c3nccc(C)n3)CC2)cc1`, for which the “hERG current change (%, negative = inhibition) at 1uM” value is -0.0861%.

For `O=C(O)c1cc2nccc(-c3ccc(F)cc3)n2n1`, the “hERG current change (%, negative = inhibition) at 1uM” value is 19.4%.

With `Cc1cc(C)n2cc(CSc3nnc(N)s3)nc2n1`, the “hERG current change (%, negative = inhibition) at 1uM” value was determined as 3.93%.

Turning to `O=c1cc(N2CCC3(CC2)OCCO3)[nH]c(=O)n1C1CCCCC1`, the “hERG current change (%, negative = inhibition) at 1uM” value was 12.3%.

On to `O=C(O)c1ccc(Cl)c(S(=O)(=O)N(Cc2ccccc2)c2ccc(F)cc2)c1`, for which the “hERG current change (%, negative = inhibition) at 1uM” value was 10.6%.

On to `COCCCn1c2nc3ccccc3nc2c2c(=O)n(-c3ccccc3OC)c(C)nc21`, for which the “hERG current change (%, negative = inhibition) at 1uM” value was found to be 11.5%.

On to `COc1cc(C2c3c(-c4ccccc4O)n[nH]c3C(=O)N2Cc2ccco2)cc(OC)c1OC` (centres unmarked), for which the “hERG current change (%, negative = inhibition) at 1uM” value is given as 4.86%.

For `CCC(Oc1ccccc1)C(=O)Nc1nc2ccccc2[nH]1` (centres unmarked), the “hERG current change (%, negative = inhibition) at 1uM” value was 6.16%.

Regarding `Cc1cc(NC(=O)c2cccnc2)ccc1NC(=O)c1cc2ccccc2o1`, the “hERG current change (%, negative = inhibition) at 1uM” value is 15%.

As to `COc1cc(CNn2nnnc2N)cc(Br)c1OCc1c(Cl)cccc1Cl`, the “hERG current change (%, negative = inhibition) at 1uM” value worked out at 14.2%.

For `Nc1ccn(CC(=O)N2CCN(c3ccccn3)CC2)c(=O)n1`, the “hERG current change (%, negative = inhibition) at 1uM” value turned out to be 18.5%.

In the case of `COC(=O)c1ccc(CN(C(=O)N2CCN(C)CC2)S(=O)(=O)c2ccc(C)cc2)cc1`, the “hERG current change (%, negative = inhibition) at 1uM” value came out at 17.1%.

Take `O=C(CNC(=O)c1ccc(Br)cc1)N/N=C/c1ccc[nH]1`: the “hERG current change (%, negative = inhibition) at 1uM” value was determined as 25.5%.

In the case of `COc1ccc2c(c1)cc(C)c1nnc(SCC(=O)N3CCN(C(=O)c4ccco4)CC3)n12`, the “hERG current change (%, negative = inhibition) at 1uM” value worked out at 4.47%.

Regarding `CCOC(=O)c1ccc(N2C(=O)C3CC=C(C)CC3C2=O)cc1` (centres unmarked), the “hERG current change (%, negative = inhibition) at 1uM” value turned out to be 8.57%.

For the compound `COc1cc2c3c(c1)c(C1=NC(=S)NC1=O)c(O)n3C(C)(C)C=C2C`, the “hERG current change (%, negative = inhibition) at 1uM” value is 11.1%.

Take `CCOc1cc(C(N)=O)cc(Br)c1OC`: the “hERG current change (%, negative = inhibition) at 1uM” value is on record as 8.22%.

In the case of `CC(C)(C)N1C(=O)NC(=O)/C(=C\c2ccc3c(c2)CCN3CCCCl)C1=O`, the “hERG current change (%, negative = inhibition) at 1uM” value came out at 10.7%.

On to `CSc1n[nH]c(=S)n1N`, for which the “hERG current change (%, negative = inhibition) at 1uM” value was 17.3%.

As to `O=C(/C=C/c1ccco1)NC(=S)Nc1ccccc1N1CCCC1`, the “hERG current change (%, negative = inhibition) at 1uM” value was 1.36%.

For `O=C(c1ccc(Cl)cc1Cl)N1CCN(c2ccc(N3CCOCC3)nn2)CC1`, the “hERG current change (%, negative = inhibition) at 1uM” value is recorded as 8.78%.

Regarding `O=c1[nH]c(CCl)nc2cc(-c3ccc(F)cc3)sc12`, the “hERG current change (%, negative = inhibition) at 1uM” value came out at 13.9%.

As for `COc1ccccc1CCc1nnc(CCC(=O)NCCOc2cccnc2)o1`, the “hERG current change (%, negative = inhibition) at 1uM” value is 12.7%.

Consider `CC1CC(C)CN(S(=O)(=O)c2cc3c4c(c2)CCN4C(=O)CC3)C1` (centres unmarked), for which the “hERG current change (%, negative = inhibition) at 1uM” value was determined as 5.83%.

Take `Cc1ccc2nc(N3C(=O)C(O)=C(C(=O)c4ccco4)C3c3ccc(O)cc3)sc2c1.O=C(O)C(=O)O` (centres unmarked): the “hERG current change (%, negative = inhibition) at 1uM” value turned out to be 12.5%.
